{"source": "PubChem BioAssay AID485341", "about": "(National Center for Advancing Translational Sciences (NCATS), 2010)", "note": "In all, about 330,000 compounds went through this assay and about 1,700 (0.52%) were called active. The inconclusive results got no clear call from the source; some entries with a clear call stand among them for comparison. Calls come from the whole dose curve; as a rule, active = well fitted inhibition curve with a large enough effect; inconclusive = small, poorly fitted or top-dose-only effect; inactive = no such curve, though single readings can be large or run the other way. A potency beside an inconclusive call is a rough fit, not a confirmed value. Potency is the fitted concentration of half-maximal effect; tags give direction and shape of the fitted curve.", "data": [{"target": "Beta-lactamase (Escherichia coli (strain K12)) (UniProt P00811)", "sequence (P00811 whole entry, looked up)": "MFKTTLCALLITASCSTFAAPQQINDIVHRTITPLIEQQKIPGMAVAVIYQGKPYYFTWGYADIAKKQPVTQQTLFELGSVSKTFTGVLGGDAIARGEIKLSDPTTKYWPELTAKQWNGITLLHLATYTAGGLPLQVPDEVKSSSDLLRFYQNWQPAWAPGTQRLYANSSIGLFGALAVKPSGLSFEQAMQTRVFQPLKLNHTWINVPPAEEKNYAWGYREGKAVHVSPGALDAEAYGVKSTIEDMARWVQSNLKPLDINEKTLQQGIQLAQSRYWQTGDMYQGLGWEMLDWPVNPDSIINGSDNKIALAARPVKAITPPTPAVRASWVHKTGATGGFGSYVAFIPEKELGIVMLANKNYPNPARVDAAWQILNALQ", "experiment": "qHTS Inhibitors of AmpC Beta-Lactamase (assay without detergent); note: nearly all actives have a fitted effect of over 20% in size", "details": "AmpC nitrocefin hydrolysis, absorbance 480 nm, 0.0001% Triton; series mostly up to 57.1 µM", "in_short": "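20 mM phosphate pH 7.0 + 0.01% (detergent screen) or 0.0001% Triton X-100; 5.3 nM AmpC reagent; cpd preinc 15 min RT; nitrocefin (800 uM stock) to start; A480 q20 s × 4 min; Activity was normalised to no-enzyme and no-compound control wells.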", "values": [{"smiles": "CCOc1ccccc1Nc1ncccc1C(=O)N1CCCC1", "Potency": "inconclusive: 8.91 µM [inhibitor, single point]"}, {"smiles": "NC(=O)CC(NC(=O)Cc1ccc(Br)cc1)c1ccc(NCCc2ccc(F)cc2)c([N+](=O)[O-])c1", "note": "(stereo not given)", "Potency": "inconclusive: 28.2 µM [inhibitor, single point]"}, {"smiles": "COc1ccc(-c2cc(-c3ccccc3)nc(SC(C)C(=O)O)c2C#N)cc1", "note": "(stereo not given)", "Potency": "inconclusive: 12.6 µM [inhibitor, single point]"}, {"smiles": "O=CN1CCN(C2CC(=O)N(c3ccc4c(c3)OCO4)C2=O)CC1", "note": "(stereo not given)", "Potency": "inconclusive: 6.31 µM [inhibitor, single point]"}, {"smiles": "COc1ccc(C2CC(c3ccc4ccccc4c3OC(C)=O)=NN2C(C)=O)cc1", "note": "(stereo not given)", "Potency": "inactive"}, {"smiles": "CCS(=O)(=O)N1CCC(C(=O)Nc2cccc(C(C)=O)c2)CC1", "Potency": "inconclusive: 4.47 µM [inhibitor, single point]"}, {"smiles": "COC(=O)C1C2c3ccccc3C(c3ccccc32)C1C(=O)OC", "note": "(stereo not given)", "Potency": "inconclusive: 35.5 µM [inhibitor, single point]"}, {"smiles": "O=C(Nc1ccc(F)cc1)Nc1ccccc1N1CCCCC1", "Potency": "inactive"}, {"smiles": "CCOC(=O)Cc1csc(NC(=O)/C=C/c2ccco2)n1", "Potency": "inactive"}, {"smiles": "O=C(NCC1CCCN1S(=O)(=O)c1cccs1)c1ccc([N+](=O)[O-])cc1", "note": "(stereo not given)", "Potency": "inconclusive: 35.5 µM [inhibitor, single point]"}, {"smiles": "O=C(NCC(c1ccco1)N1CCN(c2ccc(F)cc2)CC1)C(=O)NC1CC1", "note": "(stereo not given)", "Potency": "inconclusive: 39.8 µM [inhibitor, single point]"}, {"smiles": "Cc1c(C(=O)O)oc2c1C(O)CC(C)(C)C2", "note": "(stereo not given)", "Potency": "inactive"}, {"smiles": "O=C(Nc1nnc(CSCc2ccc(F)cc2)s1)c1ccc([N+](=O)[O-])cc1", "Potency": "inconclusive: 17.8 µM [inhibitor, partial curve]"}, {"smiles": "CCOc1ccc2nc3c(cc2c1)CN(CCOC)C(=NC)S3", "Potency": "inactive"}, {"smiles": "O=S(=O)(Nc1ccc2c(c1)nc1n2CCN(Cc2ccccc2)C1)c1ccc(Cl)cc1", "Potency": "inconclusive: 7.08 µM [inhibitor, full curve, poor fit]"}, {"smiles": "CS(=O)(=O)N1CCC(C(=O)NCc2ccc(F)cc2)CC1", "Potency": "inactive"}, {"smiles": "O=C(COc1cccnc1[N+](=O)[O-])c1ccc(Cl)s1", "Potency": "inconclusive: 39.8 µM [inhibitor, single point]"}, {"smiles": "Cc1cccc(C)c1NC(=O)CN1N=NC2C(=O)N(c3cccc(Cl)c3)C(=O)C21", "note": "(stereo not given)", "Potency": "inconclusive: 10 µM [inhibitor, partial curve]"}, {"smiles": "Cc1ccc(NC(=O)N/C=C/c2ccco2)c(C)c1", "Potency": "inconclusive: 5.01 µM [inhibitor, single point]"}, {"smiles": "COc1ccc(CC(=O)O/N=C(\\N)c2ccccc2)cc1OC", "Potency": "inactive"}, {"smiles": "COc1ccc(OC)c(N2C(=O)C(Cl)=C(N3CCCCC3)C2=O)c1", "Potency": "inactive"}, {"smiles": "O=C(/C=C/c1ccc(-c2cccc([N+](=O)[O-])c2)o1)N1CCOCC1", "Potency": "inactive"}, {"smiles": "CCOC(=O)Cn1c(=NC(=O)CSC(C)=O)sc2cc(F)ccc21", "Potency": "active: 35.5 µM"}, {"smiles": "Cc1c(C)n2c(SCC(=O)N3CCCCCC3)nnc2[nH]c1=O", "Potency": "inconclusive: 39.8 µM [inhibitor, single point]"}, {"smiles": "c1ccc(-c2csc(NC3=NCCCCC3)n2)cc1", "Potency": "inactive"}, {"smiles": "COc1ccc(COc2cc(-c3cccc(OC)c3)nc3ccc(NC(=O)c4ccc(OC)cc4)cc23)cc1", "Potency": "inconclusive: 8.91 µM [inhibitor, single point]"}, {"smiles": "Cc1cccc(C(=O)Nc2ccc(O)cc2)c1", "Potency": "inactive"}, {"smiles": "COc1ccc(-c2cc(-c3n[nH]c(=S)n3-c3cc(OC)ccc3OC)[nH]n2)cc1", "Potency": "inconclusive: 8.91 µM [inhibitor, single point]"}, {"smiles": "COc1ccccc1/C=N/NC(=O)C(NC(=O)c1ccccc1)=C(C)C", "Potency": "inconclusive: 0.631 µM [inhibitor, partial curve, poor fit]"}, {"smiles": "O=C(CNC(=O)c1cccs1)Nc1ccncc1", "Potency": "inconclusive: 39.8 µM [inhibitor, single point]"}, {"smiles": "CCc1ccc(N(C(=O)C(F)(F)F)C(C(=O)NC2CCCCC2)c2ccncc2)cc1", "note": "(stereo not given)", "Potency": "active: 0.562 µM"}, {"smiles": "COc1ccc(CCNC(=O)C(=O)NCC2CCCN2S(=O)(=O)c2ccc(OC)cc2)cc1", "note": "(stereo not given)", "Potency": "inconclusive: 25.1 µM [inhibitor, single point]"}, {"smiles": "O=C(NCCc1c[nH]c2ccccc12)C(=O)NCC1OCCCN1S(=O)(=O)c1ccc(F)cc1", "note": "(stereo not given)", "Potency": "inconclusive: 39.8 µM [inhibitor, single point]"}, {"smiles": "COc1ccccc1NC(=O)Cn1ncc2c1-c1ccccc1OC2", "Potency": "active: 6.31 µM"}, {"smiles": "COc1ccc(C)c2sc(=NC(=O)c3ccccc3)n(C)c12", "Potency": "inconclusive: 11.2 µM [inhibitor, partial curve, poor fit]"}, {"smiles": "CC(C)NS(=O)(=O)c1ccc(Oc2ncc(C(F)(F)F)cc2Cl)cc1", "Potency": "inconclusive: 6.31 µM [inhibitor, single point]"}, {"smiles": "CC(=O)Nc1ccc(S(=O)(=O)NCC(=O)OCc2cc(=O)oc3ccc4ccccc4c23)cc1", "Potency": "inconclusive: 35.5 µM [inhibitor, single point]"}, {"smiles": "COC(=O)C1CCN(S(=O)(=O)CCNC(=O)c2cccc(OC)c2)CC1", "Potency": "inconclusive: 20 µM [inhibitor, single point]"}, {"smiles": "Cc1ccc(NC(=O)CSc2nc(N)c3cc4c(nc3n2)CCCC4)cc1", "Potency": "active: 14.1 µM"}, {"smiles": "Cc1c(C(=O)O)cccc1-c1ccc(/C=N/Nc2ccc(Br)cc2)o1", "Potency": "inconclusive: 28.2 µM [inhibitor, partial curve]"}, {"smiles": "COc1ccc(NC(=O)Nc2nnc(CC(=O)Nc3ccccc3)s2)cc1", "Potency": "inactive"}, {"smiles": "O=C(CSc1nc2ccccc2s1)c1ccc(O)cc1O", "Potency": "active: 7.08 µM"}, {"smiles": "CN(CC(=O)Nc1ccc(F)cc1[N+](=O)[O-])Cc1ccccc1", "Potency": "inconclusive: 39.8 µM [inhibitor, single point]"}, {"smiles": "O=C(c1ccc(Cl)cc1)[C@@H]1[C@@H]2C(=O)N(c3ccc(Cl)cc3)C(=O)[C@@H]2C2c3ccccc3C=NN21", "note": "(stereo not given in full)", "Potency": "inconclusive: 10 µM [inhibitor, partial curve]"}, {"smiles": "COc1cc2c(cc1NC(=O)CSc1nc3ccc(C)cc3[nH]1)oc1ccccc12", "Potency": "inconclusive: 7.08 µM [inhibitor, partial curve]"}]}]}
